Source: publication PMC4294773
No constants are given. Whether binding was seen depends on the method and setting. In cells and extracts the contact can be indirect. Some entries that bind do so weakly or less than the wild type.

By UniProt entry, the sequences of proteins in these tests, tags left out. Where a name states a change or a piece, a line headed by the entry shows the natural chain unless it says otherwise. Chains listed by the source or under a name are the forms on record and can include a tag or linker. Residues count along the entry.
UniProt O43516: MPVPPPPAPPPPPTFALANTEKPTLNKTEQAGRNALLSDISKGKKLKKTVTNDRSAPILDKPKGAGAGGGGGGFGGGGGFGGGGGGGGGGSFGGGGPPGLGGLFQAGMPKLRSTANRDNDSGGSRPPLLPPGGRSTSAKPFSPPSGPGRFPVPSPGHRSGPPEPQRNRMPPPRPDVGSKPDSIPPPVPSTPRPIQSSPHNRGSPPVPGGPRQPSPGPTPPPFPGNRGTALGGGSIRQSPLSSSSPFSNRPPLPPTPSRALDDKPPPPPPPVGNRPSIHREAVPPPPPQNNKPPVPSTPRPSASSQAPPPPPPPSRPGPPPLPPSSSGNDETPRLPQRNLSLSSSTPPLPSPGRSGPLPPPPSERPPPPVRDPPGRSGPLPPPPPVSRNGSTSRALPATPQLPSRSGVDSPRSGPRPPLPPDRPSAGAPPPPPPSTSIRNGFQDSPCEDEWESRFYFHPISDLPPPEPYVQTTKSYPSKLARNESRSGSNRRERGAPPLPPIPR
WIP(ΔWBD)–EGFP: residues 1-449 of O43516
WIP(Y455/468/475F)–EGFP^RES (O43516, form named): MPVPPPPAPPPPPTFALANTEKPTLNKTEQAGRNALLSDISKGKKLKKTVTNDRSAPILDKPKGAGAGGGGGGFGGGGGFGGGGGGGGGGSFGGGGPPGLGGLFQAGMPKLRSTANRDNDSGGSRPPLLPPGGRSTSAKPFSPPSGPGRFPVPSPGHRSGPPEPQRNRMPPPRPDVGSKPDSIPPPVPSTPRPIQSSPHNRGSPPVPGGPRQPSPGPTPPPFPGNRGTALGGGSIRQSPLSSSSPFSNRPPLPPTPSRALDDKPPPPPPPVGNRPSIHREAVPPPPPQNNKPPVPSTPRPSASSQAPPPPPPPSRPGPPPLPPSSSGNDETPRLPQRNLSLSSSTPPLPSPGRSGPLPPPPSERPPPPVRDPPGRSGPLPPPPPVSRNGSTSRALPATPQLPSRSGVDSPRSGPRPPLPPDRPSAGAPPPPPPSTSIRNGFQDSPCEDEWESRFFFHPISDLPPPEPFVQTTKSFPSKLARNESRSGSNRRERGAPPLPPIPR
WIP–EGFP, unphosphorylatable variant of S488 (serine to alanine) (O43516, form named): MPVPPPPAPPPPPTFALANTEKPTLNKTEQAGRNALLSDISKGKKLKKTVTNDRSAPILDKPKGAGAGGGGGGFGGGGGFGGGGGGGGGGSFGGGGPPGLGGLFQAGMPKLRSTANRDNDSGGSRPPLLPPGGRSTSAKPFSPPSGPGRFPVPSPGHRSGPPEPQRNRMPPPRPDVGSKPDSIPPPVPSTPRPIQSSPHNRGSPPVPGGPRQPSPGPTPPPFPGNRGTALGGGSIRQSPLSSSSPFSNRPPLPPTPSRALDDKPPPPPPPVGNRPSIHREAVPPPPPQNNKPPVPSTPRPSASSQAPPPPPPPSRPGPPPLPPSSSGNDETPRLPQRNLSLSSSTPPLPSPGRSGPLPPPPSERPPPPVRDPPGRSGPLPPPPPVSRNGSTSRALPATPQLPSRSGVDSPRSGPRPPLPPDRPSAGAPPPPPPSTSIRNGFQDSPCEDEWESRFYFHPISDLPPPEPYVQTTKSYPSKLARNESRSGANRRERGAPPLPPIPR
WIP–EGFP, phosphomimetic variant of S488 (serine to aspartic acid) (O43516, form named): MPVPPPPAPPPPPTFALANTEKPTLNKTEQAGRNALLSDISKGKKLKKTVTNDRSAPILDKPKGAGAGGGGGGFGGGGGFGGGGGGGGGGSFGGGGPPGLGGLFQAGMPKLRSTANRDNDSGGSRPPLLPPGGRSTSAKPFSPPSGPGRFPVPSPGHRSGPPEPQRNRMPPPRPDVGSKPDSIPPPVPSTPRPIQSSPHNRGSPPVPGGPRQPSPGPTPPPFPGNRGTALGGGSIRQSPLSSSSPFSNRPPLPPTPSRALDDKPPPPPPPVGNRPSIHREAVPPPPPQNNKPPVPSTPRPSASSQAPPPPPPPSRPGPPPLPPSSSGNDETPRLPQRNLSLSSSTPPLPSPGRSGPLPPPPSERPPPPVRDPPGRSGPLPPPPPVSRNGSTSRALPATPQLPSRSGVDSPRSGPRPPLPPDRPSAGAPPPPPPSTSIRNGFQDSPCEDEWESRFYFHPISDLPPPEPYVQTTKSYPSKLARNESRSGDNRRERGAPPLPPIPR
UniProt P42768: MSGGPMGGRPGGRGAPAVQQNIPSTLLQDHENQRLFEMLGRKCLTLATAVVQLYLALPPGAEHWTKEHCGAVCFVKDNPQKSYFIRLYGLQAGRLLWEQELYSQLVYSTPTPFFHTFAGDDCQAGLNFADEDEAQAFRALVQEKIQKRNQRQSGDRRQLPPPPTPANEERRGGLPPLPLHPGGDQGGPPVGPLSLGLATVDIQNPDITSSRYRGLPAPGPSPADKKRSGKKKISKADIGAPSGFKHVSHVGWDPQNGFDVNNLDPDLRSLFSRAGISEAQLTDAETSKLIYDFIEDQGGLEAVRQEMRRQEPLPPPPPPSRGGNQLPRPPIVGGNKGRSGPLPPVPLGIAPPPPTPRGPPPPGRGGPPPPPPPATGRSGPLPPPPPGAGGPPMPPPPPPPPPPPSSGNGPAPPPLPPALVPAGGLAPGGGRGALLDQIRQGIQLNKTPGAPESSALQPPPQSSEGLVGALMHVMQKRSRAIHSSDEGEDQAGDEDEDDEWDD

Legend:
Assay in all cases: co-IP; WIP–EGFP variants immunoprecipitated with anti-GFP antibody and Protein A/G agarose from lysates of TGFβ1-differentiated THP-1 cells (WIP-knockdown THP-1 cells for the knockdown-resistant variants); lysis buffer 150 mM NaCl, 1% Triton X-100, 50 mM Tris-HCl pH 7.5, 1 mM EDTA; washes with 500 mM NaCl; 4°C; bound endogenous WASP detected by western blot
WIP(Y455F)–EGFP (human) = WIP(Y455F)–EGFP (human) (UniProt O43516)
WIP(Y468F)–EGFP (human) = WIP(Y468F)–EGFP (human) (UniProt O43516)
WIP(WT)–EGFP^RES (human) = WIP(WT)–EGFP^RES (human) (UniProt O43516)
WIP(Y468E)–EGFP (human) = WIP(Y468E)–EGFP (human) (UniProt O43516)
[1] = biological target: WIP(Y455F/Y468F/Y475F)–EGFP (human) (UniProt O43516)
WIP(ΔWBD)–EGFP (human) = WIP(ΔWBD)–EGFP (human) (UniProt O43516)
[2] = biological target: WIP(Y455/468/475F)–EGFP^RES (human) (UniProt O43516)
WIP(Y475F)–EGFP (human) = WIP(Y475F)–EGFP (human) (UniProt O43516)
WIP(WT)–EGFP (human) = WIP(WT)–EGFP (human) (UniProt O43516)
[3] = biological target: WIP–EGFP, unphosphorylatable variant of S488 (serine to alanine) (human) (UniProt O43516)
[4] = biological target: WIP–EGFP, phosphomimetic variant of S488 (serine to aspartic acid) (human) (UniProt O43516)
[5] = biological target: WIP(Y455E/Y468E/Y475E)–EGFP (human) (UniProt O43516)

**Q.** “Wiskott–Aldrich syndrome protein (WASP) (from UniProt P42768 1-502)” was tested. Which binding (WIP(Y455F)–EGFP (human)) did it give?
**A.** The binding was “binds”.

**Q.** What about the binding (WIP(Y468F)–EGFP (human)) of the same substance?
**A.** The binding was “binds”.

**Q.** And the binding (WIP(WT)–EGFP^RES (human))?
**A.** Its binding is “binds”.

**Q.** What about the binding (WIP(Y468E)–EGFP (human)) of the same substance?
**A.** Its binding is “binds weakly”.

**Q.** And the binding [1]?
**A.** Its binding is “binds”.

**Q.** What about the binding (WIP(ΔWBD)–EGFP (human)) of the same substance?
**A.** Its binding is “no binding”.

**Q.** And the binding [2]?
**A.** Its binding is “binds”.

**Q.** And the binding (WIP(Y475F)–EGFP (human))?
**A.** The binding was “binds”.

**Q.** What about the binding (WIP(WT)–EGFP (human)) of the same substance?
**A.** Its binding is “binds”.

**Q.** And the binding [3]?
**A.** Its binding is “binds”.

**Q.** What about the binding [4] of the same substance?
**A.** Its binding is “binds”.

**Q.** And the binding [5]?
**A.** The binding was “no binding”.
